Data published in PubChem BioAssay AID1508642 (National Center for Advancing Translational Sciences (NCATS), 2021).
Out of some 43,000 compounds screened, about 200 (0.47%) were called active. Another 12% or so got no clear call; they are omitted. Calls follow the shape of the dose curve; as a rule, active = well fitted cell-killing curve with a large enough effect; inconclusive = small, poorly fitted or top-dose-only effect, or effect the other way; inactive = flat fitted curve, though single readings scatter. Some of the results follow.

Experiment: Cell viability qHTS assay in S16 Pmp22-F2sN cells; also: nearly all actives have a fitted effect of over 65% in size
Details: S16 Pmp22-F2sN Schwann cells viability, CellTiter-Glo, 24 h; series mostly up to 57.5 µM; activity change, negative = cytotoxicity: at the top concentration
Summary of the method: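 Used to flag compounds lowering reporter output through toxicity, this quantitative HTS measures ATP-based CellTiter-Glo luminescence in S16 Pmp22-F2sN Schwann cells after 24 h compound exposure at 37C.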
% is scaled to controls: 0 for no effect and ±100 for the full control effect.

Structure (SMILES)	activity change, negative = cytotoxicity
CCOc1ccc(CCNC(=O)Cn2nnc(-c3ccccc3)n2)cc1OCC	inactive: -4.75%
Cc1ccc2cccc(NC(=O)c3ccc(-c4cccc([N+](=O)[O-])c4)o3)c2n1	inactive: 2.74%
COc1cc(OC)c(NC(=O)NC(C)c2c(-n3cccc3)sc(C)c2C)cc1Cl (stereo not drawn)	inactive: 0.513%
COc1cc(NS(=O)(=O)c2ccc(NC(=O)c3ccccc3C(=O)O)cc2)nc(OC)n1	inactive: 0.348%
CCCCNC(=O)CSc1nc2nc(C)c(Cc3ccccc3C)c(C)n2n1	inactive: 8.98%
CCC1CCc2nc3sc(C(=O)Nc4ccc(F)cc4F)c(N)c3cc2C1 (stereo not drawn)	inactive: 3.82%
COc1ccc(C(=O)N2CC(=O)Nc3ccc(F)cc3C2c2ccc(F)cc2)c(OC)c1 (stereo not drawn)	inactive: -1.04%
CCOC(=O)c1sc(NC(=O)/C=C/c2ccc(OCC)cc2)c(C(=O)OCC)c1C	inactive: 8.58%
CC(C)CC(=O)Nc1ccc(C(=O)OCc2cc(=O)n3nc(C(C)C)sc3n2)cc1	inactive: 0.0516%
COc1cccc(C(=O)Nc2cc(-c3ccccc3)no2)c1	inactive: -4.56%
COc1ccc(/C=C/c2nc(C#N)c(NCCc3ccc(OC)c(OC)c3)o2)cc1OC	inactive: -0.519%
O=C(Cc1cccc([N+](=O)[O-])c1)NCc1nc2cccnc2n1Cc1ccc(F)cc1	inactive: -7.29%
CC(=O)c1cccc(NC(=O)C2CCCN(c3nnc(-n4cccc4)s3)C2)c1 (stereo not drawn)	inactive: 6.3%
CCCCNC(=O)CCn1c(=O)c2ccccc2n(Cc2ccccc2C#N)c1=O	inactive: 18.9%
CCC(=O)N1CCc2cc(Br)cc(S(=O)(=O)N3CCCC(C(=O)Nc4cccc(Cl)c4C)C3)c21 (stereo not drawn)	inactive: -4.99%
CCOc1ccc(CC(=O)Nc2c(C(=O)c3ccc(C)cc3)oc3ccccc23)cc1OCC	inactive: 0.14%
Cc1ccc(C(=O)COC(=O)C(CC(C)C)NC(=O)C2CCC(C)CC2)cc1 (stereo not drawn)	inactive: 0.432%
CCc1ccccc1NC(=O)c1ccc2nc(CCc3ccccc3)oc2c1	inactive: -22.5%
Cc1ccccc1-c1nc(CS(=O)(=O)CC(=O)N2CCN(c3ccccc3)CC2)c(C)o1	inactive: 20.6%
Cn1c(=O)cc(OCCCC(=O)Nc2ccc(F)cc2)c2ccccc21	inactive: -18.6%
CCOc1ccc(NS(=O)(=O)c2cc(Br)cc3c2N(C(=O)C2CC2)CC3)cc1	inactive: -9.17%
CCCN(CCC)CCCNC(=O)C1CCCN(S(=O)(=O)c2cccc3nsnc23)C1 (stereo not drawn)	inactive: 4.48%
Cc1cccc(CSc2cn(CC(=O)N3CCCC3)c3ccccc23)c1	inactive: -9.58%
CCC(Oc1ccccc1)C(=O)Nc1ccc2oc(-c3ccc(OC)cc3)nc2c1 (stereo not drawn)	inactive: 0.218%

Structure (SMILES)	activity change, negative = cytotoxicity
CC(=O)Nc1ccc(NC(=O)CCNS(=O)(=O)c2cccc3nsnc23)cc1	inactive: 14.6%
CCc1ccc2oc(-c3cccc(NC(=O)c4ccc(N5CCC(C)CC5)c([N+](=O)[O-])c4)c3)nc2c1	inactive: 2.87%
COc1cccc(NC(=O)Cn2cc(S(=O)(=O)N3CCCC3)c(S(=O)(=O)N3CCCC3)c2)c1	inactive: -12.2%
CCOc1ccccc1CNC(=O)c1cc2cc(S(=O)(=O)N3CCCCC3)ccc2n1C	inactive: -20%
Cc1ccccc1CNC(=O)Cn1ncn2nc(-c3cccs3)cc2c1=O	inactive: -9.51%
CCOc1ccc(N(CC)S(=O)(=O)N2CCCC(C(=O)NCc3ccccc3Cl)C2)cc1 (stereo not drawn)	inactive: -4.44%
CCOc1cccc(CC(=O)N2CCc3c([nH]c4ccccc34)C2c2ccc(F)cc2)c1OCC (stereo not drawn)	inactive: 0.249%
Cc1ccc(CNC(=O)CSCc2ccc(F)cc2)cc1	inactive: 8.2%
O=C(COc1ccc(S(=O)(=O)NC2CCCCC2)cc1)Nc1ccc(C(F)(F)F)cc1	inactive: 11.8%
COc1ccc(-c2noc(CSCC(=O)Nc3cccc(C(F)(F)F)c3)n2)cc1OC	inactive: 4.01%
CCOc1ccc(C2Nc3ccccc3-c3nnc(SCc4ccccc4)nc3O2)cc1OC (stereo not drawn)	inactive: -4.78%
CC(C)CCN(Cc1ccco1)C(=O)c1cc2c(Cl)nc3ccccc3c2s1	inactive: -2.24%
Cc1ccc(S(=O)(=O)CC(=O)Nc2sc3c(c2C#N)CCCCC3)cc1	inactive: 1.22%
CCc1cccc(NC(=O)c2ccc(CN3C(=O)C(C)=C(c4ccc(OC)cc4)S3(=O)=O)cc2)c1	inactive: -7.53%
CCOc1ccccc1NC(=O)Nc1nnc(N2CCCCCC2)s1	inactive: -4.64%
Cc1ccccc1CNC(=O)C1CCCN(S(=O)(=O)N(C)c2ccc(F)cc2)C1 (stereo not drawn)	inactive: 0.116%
CCC(=O)N1CCc2cc(Br)cc(S(=O)(=O)CCC(=O)NCCc3ccc(Cl)cc3)c21	inactive: -18.9%
CCCOc1ccc(-c2nn(-c3ccccc3)cc2C2NC(=O)NC(C)=C2C(=O)OC)cc1C (stereo not drawn)	inactive: -4.15%
Cn1c2ccccc2c2c(C(=O)N3CCN(c4ccc(F)cc4)CC3)cn(C3CCCCC3)c(=O)c21	inactive: -3.64%
COc1cc(Cl)c(C)cc1NC(=O)CSc1ncc(S(=O)(=O)c2ccc(C(C)(C)C)cc2)c(=O)[nH]1	inactive: -0.415%
O=C1Nc2ccc(S(=O)(=O)Nc3ccccc3O)c3cccc1c23	inactive: 2.04%
CCOc1ccccc1Nc1cc(-c2ccccc2)nc(C)n1	inactive: -3.21%
COc1ccc(NC(=O)CSc2nnc(-c3cccs3)o2)cc1	inactive: 0.703%
COc1cc(NC(=O)Cn2ncc3c([nH]c4ccc(C)cc43)c2=O)cc(OC)c1OC	inactive: -0.255%
